Test results published in PMC6438586.
No constants are given. Whether binding was seen depends on the method and setting. In cells and extracts the contact can be indirect. Some binding calls cover weakened binding; strength is not graded here.

Amino acid sequences for entries named in this document (tags omitted).
UniProt P62491: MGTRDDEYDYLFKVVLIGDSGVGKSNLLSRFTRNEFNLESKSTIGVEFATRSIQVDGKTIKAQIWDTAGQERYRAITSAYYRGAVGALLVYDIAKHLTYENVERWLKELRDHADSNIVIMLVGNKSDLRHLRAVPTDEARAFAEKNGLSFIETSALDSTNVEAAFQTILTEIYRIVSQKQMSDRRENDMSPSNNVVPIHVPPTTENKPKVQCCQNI
UniProt Q8IUC6: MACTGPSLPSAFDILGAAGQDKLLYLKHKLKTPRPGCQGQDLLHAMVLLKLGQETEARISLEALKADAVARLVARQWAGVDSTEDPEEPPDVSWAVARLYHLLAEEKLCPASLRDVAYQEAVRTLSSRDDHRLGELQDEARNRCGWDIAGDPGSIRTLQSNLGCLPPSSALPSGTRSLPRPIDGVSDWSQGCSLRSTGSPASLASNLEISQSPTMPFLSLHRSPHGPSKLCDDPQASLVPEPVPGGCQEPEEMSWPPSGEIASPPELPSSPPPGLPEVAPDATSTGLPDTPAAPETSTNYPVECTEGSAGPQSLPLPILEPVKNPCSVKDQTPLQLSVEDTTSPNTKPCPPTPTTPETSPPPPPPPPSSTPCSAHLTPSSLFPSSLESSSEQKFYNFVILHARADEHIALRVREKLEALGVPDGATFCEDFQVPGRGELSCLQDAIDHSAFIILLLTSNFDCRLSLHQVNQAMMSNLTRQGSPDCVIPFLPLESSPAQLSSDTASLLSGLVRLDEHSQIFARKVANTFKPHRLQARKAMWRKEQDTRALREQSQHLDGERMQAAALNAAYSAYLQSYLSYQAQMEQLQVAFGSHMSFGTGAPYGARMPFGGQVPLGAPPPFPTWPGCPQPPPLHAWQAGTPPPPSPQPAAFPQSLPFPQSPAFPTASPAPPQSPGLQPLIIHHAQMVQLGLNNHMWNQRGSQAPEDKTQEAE

Columns and labels:
[1] = target: FLAG-FIP2 (1–512, wild type) (human) (UniProt Q7L804); assay: co-IP; anti-FLAG M2 agarose, 4 h at 4 °C, lysates of HEK293T cells co-expressing FLAG-tagged and EGFP-, EYFP-, ECFP- or mCherry-tagged proteins; lysis buffer 150 mM NaCl, 50 mM TrisHCl pH 8.0, 1 mM EDTA, 1% NP-40; immunoblot; some samples treated with NS RNA or Rab11a and Rab11b siRNA
[2] = target: TRAM-FLAG (human) (UniProt Q86XR7); assay: as above
[3] = target: TRAM 1–120-FLAG (human) (UniProt Q86XR7); assay: as above
[4] = target: TRAM 1–68-FLAG (human) (UniProt Q86XR7); assay: as above
[5] = target: TRAM 1–100-FLAG (human) (UniProt Q86XR7); assay: as above
[6] = target: TRAM 1–90-FLAG (human) (UniProt Q86XR7); assay: as above
[7] = target: TRAM 1–79-FLAG (human) (UniProt Q86XR7); assay: as above
[8] = target: TRIF-related adaptor molecule (TRAM), endogenous (human (endogenous in THP-1 and primary human macrophages)) (UniProt Q86XR7); assay: co-IP; endogenous proteins; rabbit anti-TICAM2/TRAM (H-85) coupled to Dynabeads M-270 Epoxy, cleared lysates of THP-1 cells stimulated with E. coli bioparticles, 2 h at 4 °C; immunoblot
[9] = target: TRIF-related adaptor molecule (TRAM), endogenous (human (endogenous in THP-1 and primary human macrophages)) (UniProt Q86XR7); assay: co-IP; endogenous proteins; rabbit anti-TICAM2/TRAM (H-85) coupled to Dynabeads M-270 Epoxy, cleared lysates of primary human macrophages stimulated with E. coli bioparticles, 2 h at 4 °C; immunoblot
[10] = target: FLAG-FIP2 193–512 (human) (UniProt Q7L804); assay: co-IP; anti-FLAG M2 agarose, 4 h at 4 °C, lysates of HEK293T cells co-expressing FLAG-tagged and EGFP-, EYFP-, ECFP- or mCherry-tagged proteins; lysis buffer 150 mM NaCl, 50 mM TrisHCl pH 8.0, 1 mM EDTA, 1% NP-40; immunoblot; some samples treated with NS RNA or Rab11a and Rab11b siRNA
[11] = target: FLAG-FIP2 1–192 (human) (UniProt Q7L804); assay: as above
[12] = target: FLAG-FIP2 I481E (human) (UniProt Q7L804); assay: as above
[13] = target: FLAG-FIP2 129–512 (human) (UniProt Q7L804); assay: as above

CFP-Rab11a (from UniProt P62491 1-216)
binding [1]: binds

EGFP-FIP2 (from UniProt Q7L804 1-512)
binding [2]: binds | binding [3]: binds | binding [4]: no binding | binding [5]: binds | binding [6]: binds weakly | binding [7]: no binding

Rab11 family interacting protein 2 (FIP2), endogenous (from UniProt Q7L804 1-512)
binding [8]: binds | binding [9]: binds

TIR-domain-containing adapter-inducing interferon-β (TRIF), endogenous (from UniProt Q8IUC6 1-712)
binding [8]: binds

TRAM-YFP (from UniProt Q86XR7-1 1-235)
binding [10]: no binding | binding [11]: binds | binding [1]: binds | binding [12]: binds | binding [13]: binds

mCherry-Rab11a (from UniProt P62491 1-216)
binding [12]: no binding
